# ± gives the standard deviation. The entries are a selection whose mix differs from that of the whole data set.
# System: MIWI (PIWIL1) piRISC loaded with L1MC piRNA (30 nt)
# Assay: pre-steady-state target cleavage rate (min^-1); MIWI and MILI are mouse PIWI proteins and EfPiwi is from a freshwater sponge; tags in brackets are library labels; higher = faster piRNA-guided slicing of the target
# Details: guide: L1MC piRNA 5'p-UAACUAAAUACUAUGCAAGCUGUAGGUCCU; auxiliary factor: 500 nM mouse GTSF1
# In short: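 The pre-steady-state cleavage rate was derived from a burst-and-steady-state fit of Cleave-'n-Seq data. For these assays, 1 nM active affinity-purified piRISC loaded with a single synthetic guide was mixed with […] a transcribed, DNA-blocked target RNA library in HEPES–potassium acetate buffer at 33 °C, with or without 500 nM GTSF1 partner protein, for 0–8 or 0–960 min. Sequencing counts of uncleaved targets were normalised to depth and to weakly complementary targets, and k3 was capped at 0.0001 min^-1 after three trials were pooled.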
# 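Further: 1 nM active piRISC with 0.1 nM target library at 33 °C single turnover.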
row,Sequence,pre-steady-state target cleavage rate
1,UCCUGCUACAGCUACCAUAGUAUUUAGUUA,0.337 ± 0.032
2,UCCUGGAUCAGCUUGCAUAGUAUAUAGAAA,0.245 ± 0.049
3,UCCUGGAUGUCCUUGCAUAGUAUUUACUAA,0.0245 ± 0.0069
4,UCCUGGAAGUCCUUGCAUAGUAUUUACAAA,0.0113 ± 0.0052
5,UCCACCUACAGCUUGCAUAGUUUUUUCAAA,0.144 ± 0.028
6,UGGACCUACAGCUUCCAUAGUAUUUUGUUA,0.00948 ± 0.0033
7,UCCUGGAUGUCGUUGCAUAGUAUUUAUGUUA,0.00581 ± 0.0041
8,UCCUGCUACAGCUUGUCAUAGUAUUUAGUUA,0.258 ± 0.029
9,UGGACCUACUCCUUGCAUAGUAUUUUCAAA,0.0856 ± 0.017
10,UCGACCUAGAGCUUGCAUAGUAUUUUCAAA,0.205 ± 0.035
11,UCCACCUACAGCUUGCAUAGUUAUUACAAA,0.0703 ± 0.025
12,AGGACCUAGUCCUUGCAUAGUAUUUUCAAA,0.178 ± 0.03
13,AGGACCUACAGCUUCCAUAGUAUUAAGUUA,0.156 ± 0.052
14,UCCUGGAUGUGGAUGCAUAGUAUUUAGUUA,0.00806 ± 0.0026
15,UCCUGGAACUCCUUGCAUAGUAUUUACAAA,0.26 ± 0.078
16,UCCACCUACAGCUUGGUUAGUAUUUAGAAA,0.248 ± 0.048
17,UCCUGGAUGUCGAAGCAUAGUGUUUAGUUA,0.00347 ± 0.0034
18,UCCUGGUACUCCUUGCAUAGUAUUUAGAAA,0.018 ± 0.0073
19,AGGACCUACAGGAUGCAUAGUAUUUACAAA,0.291 ± 0.041
20,UCCUGGAUGAGCUUGCAUACUAUUUACAAA,0.00497 ± 0.0042
21,UCCUGGAACAGCAAGCAUAGUAUUUUCAAA,0.0377 ± 0.012
22,AGGACCUACAGCUUGCAUAGUAAAUACAAA,0.187 ± 0.042
23,UCGACCUACAGCUUGCAUAGCUAUUUAGUUA,0.0589 ± 0.021
24,UCCUGGAACAGCUUGCAAUGUAUUUACAAA,0.0619 ± 0.019

# Source: the supplement of paper PMC10338343
